± gives the standard error. This sample is rich in variants without activity. Some results are limits rather than exact numbers.

The labels stand for the following.
B1: glmS ribozyme (parent)
chain: AUAAAAGCGCCAGAACUACAGAAAUGUAGUUGACGAGGAGGAGGUUUAUCGAAUUUUCGGCGGAUGCCUCCAAA

What all share (conditions): with glucosamine-6-phosphate
Data set [1] covers variants of B1. Put plainly: self-cleavage kobs at 40 uM GlcN6P; higher = faster cleavage; RNA array. The method, boiled down: (§1)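 Glucosamine-6-phosphate in HEPES/KCl/Mg(OAc)2 buffer, at 40 μM to 10 mM, was flowed over barcoded ribozyme variants transcribed in situ by E. coli RNA polymerase on sequenced MiSeq chips. Tracking was through a hybridised Cy3 probe at 37 °C. kobs, kcat and KM came from exponential decay fits and weighted Michaelis–Menten fits of normalised per-tile medians.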

Variants of B1 are the subject of data set [2]. The data set can be described thus: self-cleavage kobs at 10000 uM GlcN6P; higher = faster cleavage; RNA array. The method, boiled down:
as §1

The variants in data set [3] derive from B1. The data set can be described thus: self-cleavage kobs at 640 uM GlcN6P; higher = faster cleavage; RNA array. In outline:
as §1

The variants in data set [4] derive from B1. The data set can be described thus: self-cleavage kobs at 2500 uM GlcN6P; higher = faster cleavage; RNA array. In outline: as §1
In data set [5] the parent is B1. The data set can be described thus: self-cleavage kobs at 160 uM GlcN6P; higher = faster cleavage; RNA array. In outline:
as §1

For AUAAAAGCGCCAUAACUACAGAAAUGUAGUUGACGAGGAGGAGGUUUAUCGAAUUUUCGGCGGAUGCAUCCAAA [G13U C68A], in data set [1], the “self-cleavage kobs at 40 uM GlcN6P” value was less than 1e-05 s⁻¹.
As for AUAAAAGCGCCACAACUACAGAAAUGUAGUUGCCGCGGAGGAGGUUUAUCGAAUUUUCGGCGGAUGCCUCCAAA [G13C A33C A36C], in data set [1], the “self-cleavage kobs at 40 uM GlcN6P” value was less than 1e-05 s⁻¹.
Take AUAAAAGCGCCACAACUACAGAAAUGUAGUUUACGAGAAAGAGGUUUAUCGAAUCUUCGGCGGAUGCUUCCAAA [G13C G32U G38A G40A U55C C68U]: the “self-cleavage kobs at 40 uM GlcN6P” value in data set [1] is less than 1e-05 s⁻¹. In addition, the “self-cleavage kobs at 10000 uM GlcN6P” value in data set [2] is less than 1e-05 s⁻¹.
For AUAAAAGCGCCAUAACUACAGAAAUGUAGUUGACGAGGAGGAGGUUUAUGGAAUUUUCGGGGGAUGCCUCCAAA [G13U C50G C61G], the “self-cleavage kobs at 40 uM GlcN6P” value in data set [1] was found to be 8.16e-05 ± 1.3e-05 s⁻¹.
Still for that read-out and setting: in the case of AUAAAAGCGCCAGCACUACAGAAAUGUAGUUGACUAGGAGGAGGUUUUUCGAAUUUUCGGCGGAUGCCUCCAAA [A14C G35U A48U] it was less than 1e-05 s⁻¹.
Consider AUAAAAGCGCCACAACUACAGAAAUGUAGUUGACGAGGAGGAGGUUUAUCGAAUUUUCGGCGGAUGCCUCUAAA [G13C C71U], for which the “self-cleavage kobs at 40 uM GlcN6P” value in data set [1] was less than 1e-05 s⁻¹.
Regarding AUAAAAGCGCCAAAACUACAGAAAUGUAGUUGACGAGGAGGAGGUUUAUCGAAUCUUCGGCGGAUGACUCUAAA [G13A U55C C67A C71U], the “self-cleavage kobs at 40 uM GlcN6P” value in data set [1] was less than 1e-05 s⁻¹. In data set [2], the “self-cleavage kobs at 10000 uM GlcN6P” value is less than 1e-05 s⁻¹.
In the case of AUAAAAGCGCCAUAACUACAGAAAUGUAGUUGACAAGGAGGAGGAUUAUCGAAUUUUCGGCGGGUGCCUCCAAA [G13U G35A U45A A64G], the “self-cleavage kobs at 40 uM GlcN6P” value in data set [1] is less than 1e-05 s⁻¹. The “self-cleavage kobs at 640 uM GlcN6P” value in data set [3] was less than 1e-05 s⁻¹. Further, the “self-cleavage kobs at 2500 uM GlcN6P” value in data set [4] was less than 1e-05 s⁻¹. Moreover, the “self-cleavage kobs at 10000 uM GlcN6P” value in data set [2] was less than 1e-05 s⁻¹.
As to AUAAAAGCGCCACAACUACAGAAAUGUAGUUGACGAGGAGGGGGUUUUUCGAAUUUUCGGCGGAUGCCUUCAAA [G13C A42G A48U C70U], the “self-cleavage kobs at 40 uM GlcN6P” value in data set [1] was less than 1e-05 s⁻¹. In addition, in data set [3], the “self-cleavage kobs at 640 uM GlcN6P” value was less than 1e-05 s⁻¹. The “self-cleavage kobs at 160 uM GlcN6P” value in data set [5] was less than 1e-05 s⁻¹.
Take AUAAAAGCGCCAUAACUACAGAAAUGUAGUUGACGAGGAGGAAGUUUAUCGAAUUUUCGGCGGAUGCCUCCAAA [G13U G43A]: in data set [1], the “self-cleavage kobs at 40 uM GlcN6P” value is less than 1e-05 s⁻¹. Also, the “self-cleavage kobs at 640 uM GlcN6P” value in data set [3] is less than 1e-05 s⁻¹. Besides, the “self-cleavage kobs at 160 uM GlcN6P” value in data set [5] is less than 1e-05 s⁻¹. In addition, the “self-cleavage kobs at 10000 uM GlcN6P” value in data set [2] is less than 1e-05 s⁻¹.
In the case of AUAAAAGCGCCAGCACUACAGAAAUGUAGUUGACGAGGAGCAGGGUGAUCGAAUUUACGGCGGAUGCCUCCAAA [A14C G41C U45G U47G U57A], the “self-cleavage kobs at 40 uM GlcN6P” value in data set [1] is less than 1e-05 s⁻¹. The “self-cleavage kobs at 640 uM GlcN6P” value in data set [3] was less than 1e-05 s⁻¹. The “self-cleavage kobs at 160 uM GlcN6P” value in data set [5] is less than 1e-05 s⁻¹. Further, the “self-cleavage kobs at 2500 uM GlcN6P” value in data set [4] is less than 1e-05 s⁻¹. The “self-cleavage kobs at 10000 uM GlcN6P” value in data set [2] is less than 1e-05 s⁻¹.
Consider AUAAAAGCGCCAUAACUACAGAAAUGUAGUUGACGAGGAGAAGGUUUAUCGAAUUUUCGGCGGAUGCCUCCAAA [G13U G41A], for which the “self-cleavage kobs at 40 uM GlcN6P” value in data set [1] is less than 1e-05 s⁻¹. In data set [5], the “self-cleavage kobs at 160 uM GlcN6P” value was less than 1e-05 s⁻¹.
For AUAAAAGCGCCAGCACUACAGAAAUGUAGUUGACGAGGACGAGGUUUAUCGAAUUUUCGGCGGAUGCUUCCAAA [A14C G40C C68U], the “self-cleavage kobs at 40 uM GlcN6P” value in data set [1] is less than 1e-05 s⁻¹. For the same variant, the “self-cleavage kobs at 640 uM GlcN6P” value in data set [3] is less than 1e-05 s⁻¹.
Consider AUAAAAGCGCCAUAACUACAGAAAUGUAGUUGACGAGGAGGAGGUUUAUCGAAUUUUCCGCGGAAGCCUCCAAA [G13U G59C U65A], for which, in data set [1], the “self-cleavage kobs at 40 uM GlcN6P” value was less than 1e-05 s⁻¹.
On to AUAAAAGCGCCACAACUACAGAAAUGUAGUUGACGAGGAGGAGGUUUAUCGAAUUUUCGGCGGAUGACUCCAAA [G13C C67A], for which the “self-cleavage kobs at 40 uM GlcN6P” value in data set [1] was less than 1e-05 s⁻¹.
In the case of AUAAAAGCGCCAUAACUACAGAAAUGUAGUUGACGAGGAGGAGCUUUAUCGAAUUUUCGGCGGAUGCCUCCAAA [G13U G44C], in data set [1], the “self-cleavage kobs at 40 uM GlcN6P” value was less than 1e-05 s⁻¹. Further, the “self-cleavage kobs at 640 uM GlcN6P” value in data set [3] is less than 1e-05 s⁻¹. Besides, the “self-cleavage kobs at 160 uM GlcN6P” value in data set [5] was less than 1e-05 s⁻¹. The “self-cleavage kobs at 10000 uM GlcN6P” value in data set [2] is less than 1e-05 s⁻¹.
As to AUAAAAGCGCCAUAACUACAGAAAUGUAGUUGACGAGGAGGGGGUUUACCGAUUUUUCGGCGGAUGCCUCCAAA [G13U A42G U49C A53U], the “self-cleavage kobs at 40 uM GlcN6P” value in data set [1] is less than 1e-05 s⁻¹. In addition, in data set [4], the “self-cleavage kobs at 2500 uM GlcN6P” value was less than 1e-05 s⁻¹.
Consider AUAAAAGCGCCACAACUACAGAAAUGUAGUUGACGCGGAGGAGGUUUAUCGAAUUUUCGGCGGAUGCCUCGAAA [G13C A36C C71G], for which, in data set [1], the “self-cleavage kobs at 40 uM GlcN6P” value was less than 1e-05 s⁻¹. Also, in data set [3], the “self-cleavage kobs at 640 uM GlcN6P” value was less than 1e-05 s⁻¹.

The values are drawn from the supplement of paper PMC7125110.
